# Test results as given in patent US20210260163A1.
# Target: 589A knob HC-IL2 half (SEQ ID NO: 209 with light chain SEQ ID NO: 216) of the 589A-IL-2 prodrugs (human)
# Test: cell-based or functional assay
"CTLL2 Activity EC50 (nM), Activated, 589A-IL-2C","CTLL2 Activity EC50 (nM), Not activated, 589A-IL-2C","CTLL2 Activity EC50 (nM), Activated, 589A-IL-2E",Binder
218 nM,8320 nM,,589A hole HC-mask half of 589A-IL-2C (SEQ ID NO: 212 with light chain SEQ ID NO: 216) (protein) heavy: EVQLVESGGGLVKPGGSLRLSCAVSGFYFNRGYWICWVRQAPGKGLEWIGCIDTGSGVPYYANWAKGRFTISRHTSKTTLTLQMNSLRAEDTASYFCARNSDSIYFNLWGPGTLVTVSS[no letters for human IgG1 constant region with Y407T (EU numbers)]GGGGSLSGRSDNHGGGGSGGGGSGGGGSAVNGTSQFTCFYNSRANISCVWSQDGALQDTSCQVHAWPDRRRWNQTCELLPVSQASWACNLILGAPDSQKLTTVDIVTLRVLCREGVRWRVMAIQDFKPFENLRLMAPISLQVVHVETHRCNISWEISQASHYFERHLEFEARTLSPGHTWEEAPLLTLKQKQEWICLETLTPDTQYEFQVRVKPLQGEFTTWSPWSQPLAFRTKPAALGKDT light: DIQMTQSPSSVSASVGDRVTITCQASQSIGGYISWYQQKPGQPPKLLIYKASTLASGVPSRFKGSGSGTDFTLTISSLDSEDAATYYCQNYAGVSIYGAVFGGGTKVVVKRTVAAPSVFIFPPSDEQLKSGTASVVCLLNNFYPREAKVQWKVDNALQSGNSQESVTEQDSKDSTYSLSSTLTLSKADYEKHKVYACEVTHQGLSSPVTKSFNRGEC
,,55 nM,589A hole HC-mask half of 589A-IL-2E (SEQ ID NO: 214 with light chain SEQ ID NO: 216) (protein) heavy: DIQMTQSPSSVSASVGDRVTITCQASQSIGGYLSWYQQKPGQPPKLLIYKASTLASGVPSRFKGSGSGTDFTLTISSLDSEDAATYYCQNYAGVSIYGAVFGGGTKVVVKRTVAAPSVFIFPPSDEQLKSGTASVVCLLNNFYPREAKVQWKVDNALQSGNSQESVTEQDSKDSTYSLSSTLTLSKADYEKHKVYACEVTHQGLSSPVTKSFNRGECEVQLVESGGGLVKPGGSLRLSCAVSGFYFNRGYWICWVRQAPGKGLEWIGCIDTGSGVPYYANWAKGRFTISRHTSKTTLTLQMNSLRAEDTASYFCARNSDSIYFNLWGPGTLVTVSS[no letters for human IgG1 constant region with Y407T (EU numbers)]GGGGSLSGRSDNHGGGGSAVNGTSQFTCFYNSRANISCVWSQDGALQDTSCQVHAWPDRRRWNQTCELLPVSQASWACNLILGAPDSQKLTTVDIVTLRVLCREGVRWRVMAIQDFKPFENLRLMAPISLQVVHVETHRCNISWEISQASHYFERHLEFEARTLSPGHTWEEAPLLTLKQKQEWICLETLTPDTQYEFQVRVKPLQGEFTTWSPWSQPLAFRTKPAALGKDT light: DIQMTQSPSSVSASVGDRVTITCQASQSIGGYISWYQQKPGQPPKLLIYKASTLASGVPSRFKGSGSGTDFTLTISSLDSEDAATYYCQNYAGVSIYGAVFGGGTKVVVKRTVAAPSVFIFPPSDEQLKSGTASVVCLLNNFYPREAKVQWKVDNALQSGNSQESVTEQDSKDSTYSLSSTLTLSKADYEKHKVYACEVTHQGLSSPVTKSFNRGEC
